Over roughly 33,000 sequences, “E-score (-0.5 to 0.5)” has its median near -0.054; the highest 2% begin near 0.39. Some of the results follow.
Biological target: Ylr278c (UniProt Q05854)
Assay: PBM E-score (8-mer binding enrichment) (E-score (-0.5 to 0.5)); higher = stronger / more preferred TF binding; most listed sequences are background and not binding sites
Details: protein concentration: 200 nM; construct: GST-DNA-binding domain
Method: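 Universal 'all 10-mer' protein binding microarrays (Agilent AMADID 015681) probed with GST-tagged S. cerevisiae TFs (full-length or DBD) made by in vitro transcription/translation (PURExpress), about 100-200 nM. Bound TF was detected with fluorescent anti-GST. Each ungapped 8-mer (which stands for itself and its reverse complement) is scored by the PBM enrichment score (E-score), a modified Wilcoxon-Mann-Whitney statistic from -0.5 to +0.5, computed with the Universal PBM Analysis Suite. Scale: above 0.35 generally sequence-specific binding.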

Row | Sequence | PBM E-score
1 | CACTAGGC | -0.035
2 | CACCAAAA | -0.104
3 | AACACTGC | 0.0737
4 | ACTACGGA | 0.316
5 | ATTCAAGC | 0.00141
6 | TCTGGTCA | -0.187
7 | CAATCATA | -0.0563
8 | TAAGGGCA | -0.144
9 | ACCAGGGC | -0.178
10 | ATCGGTAG | 0.144
11 | ATAAAGAA | -0.0262
12 | AATACCAT | -0.00946
13 | GGAAGACA | -0.062
14 | TAGTCATA | -0.145
15 | AAAAGGTA | -0.077
16 | ACTCCGAA | 0.484
17 | CATGTAAA | -0.194
18 | ACTATTAG | 0.0518
19 | CAGGCTGG | -0.0868
20 | CTAATCCC | 0.155
21 | AAGCACAC | -0.17
22 | ATCCCGGC | 0.391
23 | CTATCGGA | 0.444
24 | AAAGCGCG | 0.0763
25 | CTAGACCC | -0.0706

Row | Sequence | PBM E-score
26 | TGTTTCAA | -0.0571
27 | ATTTCCGA | 0.446
28 | GCAATATA | 0.00065
29 | AAGTCTGC | -0.288
30 | AAACAGCA | 0.0669
31 | AACAAAGA | -0.0953
32 | CTGGAGTA | -0.0695
33 | CTGTGCGA | -0.261
34 | CGTGAGTC | -0.141
35 | GCTACGGA | 0.212
36 | CAACACGC | -0.182
37 | CGCCCATC | -0.0254
38 | AGACTTCG | -0.137
39 | ACGCCTAA | -0.116
40 | ACCCCCAA | -0.126
41 | AAACCTCC | 0.147
42 | AGTTCTGC | 0.0212
43 | ACTAATAA | -0.0291
44 | CGCGTACG | 0.22
45 | CGATCTAG | -0.179
46 | ACTCCGAT | 0.484
47 | ATGGGCTC | -0.102
48 | AGACCTTG | -0.323
49 | CAAGCTTC | -0.198
50 | ACGGAACA | 0.27

Row | Sequence | PBM E-score
51 | ACCGGCTG | 0.189
52 | CTTACTGC | 0.0718
53 | ACCGCGAA | 0.315
54 | GCGACGTA | -0.0854
55 | CATACCCC | 0.114
56 | GTTATCAA | -0.231
57 | CCAATAAC | -0.00737
58 | GGTCATAC | 0.0686
59 | GCCCCTCA | -0.0143
60 | AACGTGAA | -0.175
61 | ATCAGCGA | -0.00871
62 | CTTATGGA | -0.2
63 | ATCGATCG | -0.0315
64 | ATGATGGA | -0.0123
65 | AATAGCTC | -0.176
66 | CGACACGC | -0.0207
67 | GGCTAACC | -0.102
68 | GCTCGTCA | -0.249
69 | AAACTAAA | -0.0975
70 | ACAGCTAC | -0.256
71 | CTAATGTA | -0.0864
72 | GAAGAAAC | 0.0261
73 | ATAACGCA | -0.226
74 | GTAGGTAA | -0.066
75 | TAACCACA | -0.136

Row | Sequence | PBM E-score
76 | CCGGAAAG | 0.319
77 | CATCGCTA | -0.166
78 | TGTAAACA | -0.202
79 | CGGGAAAG | 0.284
80 | ACGGTCAT | 0.143
81 | CTCTGACC | -0.148
82 | CTTCTGTC | -0.0596
83 | ACATGTAC | 0.00176
84 | CGCATTTC | 0.233
85 | GCATACCA | -0.0385
86 | ACCCCCGA | 0.261
87 | ACCCATGA | -0.136
88 | ACGGATGC | 0.167
89 | TGGATCAA | -0.264
90 | CCAAATCA | -0.195
91 | GGACGTAA | 0.12
92 | GGGAACTA | 0.11
93 | CACGGAGC | 0.403
94 | GGCTCCAA | -0.0143
95 | AGAGTGGC | -0.143
96 | GATGAAGA | 0.0661
97 | GAGCCCGC | 0.16
98 | ATCGCATC | 0.115
99 | ATAGACCC | 0.077
100 | CAGTCGAC | -0.104

Row | Sequence | PBM E-score
101 | AGTCTGTA | -0.179
102 | AGGTTGAG | -0.274
103 | TGTCCGAA | 0.407
104 | ATAATGAC | -0.131
105 | CTGCGCCA | -0.0415
106 | AACTTCGC | 0.0283
107 | ACAGGAGC | -0.0789
108 | AACCTCTA | 0.0888
109 | CTGTTTTC | -0.0785
110 | GTGCGGTA | 0.179
111 | CCAGCAGG | -0.276
112 | CTTACTCA | -0.11
113 | AGCTCAAT | -0.12
114 | AGTAGAGC | -0.206
115 | AACTGGAG | -0.0801
116 | AGGTCTGC | -0.29
117 | ATAGAAAC | -0.0464
118 | AACGTATC | -0.183
119 | CCGGTACC | 0.338
120 | GTAAGGAC | -0.00016
121 | GTAACGGA | 0.332
122 | AAGAGCTT | -0.0532
123 | GTTTAAAC | 0.22
124 | ACAGGACG | -0.043
125 | AATACTAC | -0.0988

Row | Sequence | PBM E-score
126 | AGTAGACG | -0.154
127 | ACGCTATC | -0.0536
128 | GAAGTGTA | -0.174
129 | CCTCCGTC | 0.351
130 | GATTCCAA | -0.116
131 | GCGTGCCA | -0.0657
132 | ATACTATC | -0.117
133 | CCCAGGAC | -0.0962
134 | CGTGTAAG | -0.138
135 | TATGACCA | -0.0708
136 | CGTCGTCA | -0.0908
137 | TCGAACCA | -0.149
138 | GCAAGAGA | -0.205
139 | GGCGGTTA | 0.00531
140 | GCTCGTAC | -0.129
141 | ACCGATTC | 0.0932
142 | GAATCATC | -0.0443
143 | CATCTGAA | -0.114
144 | AGTCAGGC | 0.146
145 | ATAGACTG | -0.233
146 | CGAAACTC | 0.237
147 | CCGGAACG | 0.411
148 | AAGGATCT | -0.273
149 | AGCAGGAA | -0.159
150 | CTGTGATA | -0.247

Row | Sequence | PBM E-score
151 | ATCCGAAT | 0.395
152 | ACCTCTAA | -0.0079
153 | AGGCTGGG | -0.326
154 | AATACATG | 0.0903
155 | CGATATTC | 0.257
156 | ACGACCAG | -0.208
157 | TGTATTAA | -0.0503
158 | CTGTGGTC | -0.104
159 | AGCATTAA | -0.0282
160 | ACGCGCGC | 0.153
161 | AAACCCCA | -0.0305
162 | CTATCAGA | -0.102
163 | ACAACTAC | 0.0206
164 | GTAGTAAA | -0.0567
165 | GTCTTCAC | 0.00183
166 | GGGGCCTA | -0.0926
167 | CTATCAAG | -0.176
168 | GTCTTCCA | -0.231
169 | ACATAATG | 0.0146
170 | ATAATTAC | 0.0989
171 | ACGATAAT | -0.134
172 | ATCCGCAG | 0.259
173 | CGCTATAG | -0.159
174 | GCACGTAA | -0.239
175 | AAGGACAG | -0.07

Row | Sequence | PBM E-score
176 | GTTAGGTA | -0.0613
177 | ATATCGTA | -0.113
178 | CTGCGAAC | -0.285
179 | AGATATAC | -0.157
180 | AATGGAGG | 0.0263
181 | ACAGGAGG | -0.167
182 | GCGACGGA | 0.313
183 | ATAGAGCC | -0.0581
184 | GGCAGGTA | 0.0246
185 | CCAAGGTA | -0.15
186 | AAAGACTC | -0.219
187 | ATATTAGA | -0.0388
188 | GTGTTAAA | -0.223
189 | CCATGCCG | 0.277
190 | ACCGGCTA | 0.199
191 | GCTTGACC | 0.0293
192 | GGAAGCGA | 0.0891
193 | AAGGATAA | -0.152
194 | AAAGGAGA | -0.135
195 | AGAAACGC | -0.00934
196 | ATGTCCGG | 0.468
197 | AGATGTTA | -0.216
198 | TGAATTCA | -0.237
199 | AAAAAGTT | -0.116
200 | GGACATCA | 0.214

Row | Sequence | PBM E-score
201 | CAGATACG | 0.0708
202 | AAACGCCT | -0.0556
203 | AGATATGA | -0.0053
204 | CCACGTCA | -0.236
205 | GATCGTGA | -0.0709
206 | CGCTCAGC | -0.0244
207 | CGAGTGAA | -0.0383
208 | GAAATGTA | 0.144
209 | CGTCTGCA | -0.24
210 | CTCGAAGA | -0.135
211 | ATCTAGAC | -0.311
212 | GTCTGAGA | -0.151
213 | GACTTCCA | 0.0321
214 | CATCTCAA | -0.207
215 | AAATCTCA | -0.13
216 | TGACCGCA | 0.0189
217 | CAGAATAC | 0.0389
218 | CCCCGCAC | 0.245
219 | AATGTAAC | -0.0522
